In PMC12136788:
Some of the results follow.

B1: chr5:143665172:143665173:-_ENSMUSG00000029580_ENSMUST00000100497|perfect_dup|FALSE|FALSE (ssRNA)
RNA: GGGAGUUCUACAGUCCGACGAUCGGCUUUUAGGAUGGCAAGGGACUUCCUGUAACAACGCAUCUCAUAUUUGGAAUGACUAUUAAAAAAACAACAAUGUGCAAUCAAAGUCCUCGGCCACAUUGUGAACUUUGGGGGAUGCUCCAACAGAGGAUUGAGCAUCA
B2: chr11:46405157:46405158:+_ENSG00000110492_ENST00000395566|hu_hu|hu_hu_hu_mus_False|98_98 (ssRNA)
RNA: GGGAGUUCUACAGUCCGACGAUCCCCUCCCCACUUUGGCUGGGGAGUGUGGGCGUGAGAGGACAGGCGUGAUUGACAGAGCUGACAGGAAGACAAAAGGCACUGGUGGGUUAUAUCUUGGGCCUGUGGGAGAGGAGGGCUCCGCAACAGAGGAUUGAGCAUCA
B3: chr10:62048396:62048397:-_ENSMUSG00000020075_ENSMUST00000045866|mus_hu|FALSE|FALSE (ssRNA)
RNA: GGGAGUUCUACAGUCCGACGAUCAGCUUCCACAGCUCCCUUCUCCUCUAUCAGCUUCUCAGCUGAUUGUUUGAAGUGACUAAUGGCAGUGGGAGGCACGGAAUCCAAAAGCCUGAUGGCAUCUUUGCUGGAAGCUUUUAUUAUCAACAGAGGAUUGAGCAUCA
B4: chr6:41757443:41757444:+_ENSG00000214736_ENST00000398881|hu_mus|hu_hu_hu_mus_False|78_78 (ssRNA)
RNA: GGGAGUUCUACAGUCCGACGAUCGAACCGUGCAGAGGCAACAUCUCAGCCGACACUGUGGACUCAAGGGGCAGUGGGGGGGGGUUCAGGCAAGGAGAGGGAGUCAACUUCAGCUGCCACUCAGGUAGGAUCUUGUGGUCACAGCAACAGAGGAUUGAGCAUCA
B5: 135676400_135676520_66_CDS_ENSG00000082258_ENST00000295238|human|control|control (ssRNA)
RNA: GGGAGUUCUACAGUCCGACGAUCUUUAUCCGCCUCCACUCCGCAGCGGCGGCUCGGCGUGUUCUCCAGCUGUUCCCGAGUAAAGAACCAGCGAGAAGAAGCUCCACGGCCCGACGCCAUGACACUUCCUCCUCCGCCCGCUCCCAACAGAGGAUUGAGCAUCA
B6: chr16:45382771:45382772:-_ENSMUSG00000022661_ENSMUST00000163230|mus_mus|mus_mus_mus_hu_True|68_98 (ssRNA)
RNA: GGGAGUUCUACAGUCCGACGAUCCUGGGUCAUGUUAUGGGCCCAAUGGACAGGGAGGGCAUGCUUCUGUAAAGAUGUGAGCUAUUGUCUAAGACUAACAAUAUUUAUCUAGCUAUAAAAAUAAGUUAAAUGAAUAAGUUAAGACAACAGAGGAUUGAGCAUCA
B7: chr11:87793471:87793472:-_ENSMUSG00000020483_ENSMUST00000020775|mus_mus|mus_mus_mus_hu_False|1_48 (ssRNA)
RNA: GGGAGUUCUACAGUCCGACGAUCUGGACUUGAAAAUAAAAGAAUAAGCUGGAUCCCCCACCCCCCCACAUUGUCAACCCUACACGAGUUCUGAAUGGGCGACUCAUGAAAAUCAGCAGCUCAAACGGCAAUGACCACCCACCCCAACAGAGGAUUGAGCAUCA
B8: 8424412_8424532_2134_CDS_ENSG00000133026_ENST00000269243|human|control|control (ssRNA)
RNA: GGGAGUUCUACAGUCCGACGAUCCUUCUCGUGAUUUGGAAUGAUACAACGAACAAAGUUAGGGUUGGUGUUUCGGAGAGUUGCCAUCAGCUUGGUGAGAGAUUCUUUGUAGAGUUGCCCAACGGUACGAAACAUGCCCUUCUUCAACAGAGGAUUGAGCAUCA
B9: 56581479_56581681_1652_CDS_ENSG00000108389_ENST00000323456|human|control|control (ssRNA)
RNA: GGGAGUUCUACAGUCCGACGAUCAGAGCAGGUCCGCUUGUAGAUGUUGCGCUUCUCUCGCUCACAGGGGUUGUUGGCCAGGAAGGUGCCGUAGAGGCAGGAGUAUGUGUGUUGCACCAGUUUUACCAGGAAUGCUUCAUUAAACAACAGAGGAUUGAGCAUCA
B10: chr16:94690093:94690094:+_ENSMUSG00000040785_ENSMUST00000117648|mus_hu|mus_mus_mus_hu_True|28_48 (ssRNA)
RNA: GGGAGUUCUACAGUCCGACGAUCGGGCUGGGAUGACGGACACACAGCCUCGAUUCCAGGGGGAAAAAGUCUUAGUCGAUACUAAUUUAAAAAGUAUAAUGAUUUUUAUUACCAAAAUUACAUCUAUAAAAGAUGAAAAGCAAACAACAGAGGAUUGAGCAUCA
B11: chr4:76721835:76721836:+_ENSG00000138768_ENST00000264904|hu_mus|hu_hu_hu_mus_True|1_1 (ssRNA)
RNA: GGGAGUUCUACAGUCCGACGAUCGUUUGGCUGGGGUUUCUGAGACGCUCUGGAAUAUAACUCAUGUUUGCUAAUAAAUCCUAGUUUCUCUAUGAAAUUCUCUUUGCCAAUCCUCUUCUCUAUUAGUUGCUUUAGUUCUCUUUCCAACAGAGGAUUGAGCAUCA
B12: chr5:31223311:31223312:+_ENSMUSG00000029163_ENSMUST00000031055|mus_mus|FALSE|FALSE (ssRNA)
RNA: GGGAGUUCUACAGUCCGACGAUCUGCGGCCCCUGUAGAUAAGUUUGGUGGUCGGGUCCACCCUGUCUACACCUGUUCAAGCUCUGUGUCCUCGUAGAGCAGGGCUCCGCUGAAGAUGGUGAGCGGCUCCUCGGAGUGUGCCAGCAACAGAGGAUUGAGCAUCA
B13: chr2:5814250:5814251:-_ENSMUSG00000025816_ENSMUST00000102981|mus_hu|mus_mus_mus_hu_True|1_38 (ssRNA)
RNA: GGGAGUUCUACAGUCCGACGAUCUUCCUUUCCGGUUUCUGAAUUUCUGGUAGAACUGCACAGAAUGGUUUGAUAACUUCUAAAAAUUUGAUGCCCAUGGCGGCGGCUGGGGAGGCCCAGGGGGAAACCGCGGCCUCGCAGCUGCAACAGAGGAUUGAGCAUCA
B14: chr7:44244176:44244177:+_ENSG00000106636_ENST00000223369|hu_mus|hu_hu_hu_mus_False|48_58 (ssRNA)
RNA: GGGAGUUCUACAGUCCGACGAUCACUGUCGCUCCGGACGUAGACAUGGCAAAGAUACUCUUGUUCUUUGACAGAAGCUCUAGUGCCUUUCGAUGAGCGUUCCACAAUCAGUUGACUUGUAAAGGUCAUGAAUUCCUGCACACUCAACAGAGGAUUGAGCAUCA
B15: chr2:135777783:135777784:+_ENSMUSG00000039943_ENSMUST00000110109|mus_mus|FALSE|FALSE (ssRNA)
RNA: GGGAGUUCUACAGUCCGACGAUCGAUGGCCUGGAUUACAUCCUUAAAAAGGAUGUCUGUACACAUUGCUUUUCCGUGAGUUAUUAUCGGUUCCUGAUCUUCACCUUUUCCAUCCCAACAGUCAAGUUCAACACACCUGCAACCCAACAGAGGAUUGAGCAUCA
B16: chr18:25268621:25268622:+_ENSMUSG00000034295_ENSMUST00000037097|mus_mus|FALSE|FALSE (ssRNA)
RNA: GGGAGUUCUACAGUCCGACGAUCACUGAUGGAAGAGAGUGUGAGAAGGAACUGCUCUGCACUGCCCAACGGCACUUCCGGGUUAGCCAGCUGAGCCUCCUGGAUUUUCUGCUUCUCCUCUUCAGUUGGAAUCAUGGUCAGAAUCAACAGAGGAUUGAGCAUCA
B17: chr15:42481402:42481403:-_ENSG00000166887_ENST00000318006|hu_hu|motif|central (ssRNA)
RNA: GGGAGUUCUACAGUCCGACGAUCCUUUGAAACCGUAGUGAUUUGUUGAAAUGUCAAUAGGUCAUGGACAUAAAUGUUAUUUUCGGACAAGCUGACCAGAAUCUUAAACUGGGAAACCACAUGGAUCUGCUGAAUCUUUUUGGACAACAGAGGAUUGAGCAUCA
B18: chr15:31432613:31432614:-_ENSMUSG00000039100_ENSMUST00000090227|mus_mus|FALSE|FALSE (ssRNA)
RNA: GGGAGUUCUACAGUCCGACGAUCAUAAAUUGGUGUGAAAGCAAAUCUGUGCUUGCAUAAUUCACAGUAUUCUUUCCGACUAUGUUUCAACCACUGAACUAAGCAUUCUUGAUGAAUAAAUUUAAUACUGCCAGUACAUACACACAACAGAGGAUUGAGCAUCA
B19: 74381551_74381671_2928_3pUTR_ENSG00000114978_ENST00000396049|human|control|control (ssRNA)
RNA: GGGAGUUCUACAGUCCGACGAUCUCUUGAGUCUCAAAAUACCAACACAUCUCUGAUUUAUGUCCCAUUUAUAAGCUGCCUUUACUACUGUCCUGACAUGUGAUCGUCUUUCAUUUGCUUUGGAGCUUAGUGGUGAAGAGAGGGCAACAGAGGAUUGAGCAUCA
B20: chr1:46159212:46159213:+_ENSG00000159596_ENST00000372025|hu_mus|hu_hu_hu_mus_True|1_108 (ssRNA)
RNA: GGGAGUUCUACAGUCCGACGAUCUCUGAUCCCACCCAAGAAAGCUAGGAAACCGGCUCCAUAAGCCAUCUGAGUGAAAGCUAGGACGGGGAUAUAAGACUUUGUUAUUACCAUGAGAAGUGGGGGAGCAGUAAAGGGGAUUAGCAACAGAGGAUUGAGCAUCA
B21: chr12:21919153:21919154:-_ENSG00000121361_ENST00000240662|hu_hu|FALSE|FALSE (ssRNA)
RNA: GGGAGUUCUACAGUCCGACGAUCAUACAGGGGACUGCGCUUGUCAAUCACGUGGCAGAUGAUCAAAGGGGCCACCAGAAAAAUGUUAUUGCUCUCGAUUGGGUUAUCAACAGGAAUGUCCAGUUGGUGAAUAGGAACCACCUCCAACAGAGGAUUGAGCAUCA
B22: chr4:40680069:40680070:+_ENSMUSG00000028410_ENSMUST00000030118|mus_mus|FALSE|FALSE (ssRNA)
RNA: GGGAGUUCUACAGUCCGACGAUCAGUCAGAGCUUUUAUAUUUGUGUUUAUUCUUCAUUUAACUUUUUUUAAAACACUACUAUAGUUGAAUAUUAAAACAAAAACAAUAGCCAAGUAGUGAGCUUAUUAUGAUUACAGUCCUUCCAACAGAGGAUUGAGCAUCA

molecular target: T1, UNK ZnF1-3 (human, UniProt Q9C0B0 31-174); assay: nsRBNS (natural sequence RNA bind-n-seq); RBNS binding buffer (assumed for nsRBNS): 25 mM Tris pH 7.5, 150 mM KCl, 3 mM MgCl2, 0.01% Triton X-100, 500 ug/ml BSA, 20 U/ml SUPERase-In, 4 C; UNK is unkempt and MSI1 is Musashi-1; names of the RNAs are library labels; protein concentration not given here; high values mean tight binding
T1 sequence: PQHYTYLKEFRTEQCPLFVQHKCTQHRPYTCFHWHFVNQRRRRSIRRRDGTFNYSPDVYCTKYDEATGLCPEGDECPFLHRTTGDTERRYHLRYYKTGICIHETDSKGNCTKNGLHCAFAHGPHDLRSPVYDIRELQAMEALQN

Binder	binding signal [enrichment R]
B1	1.15
B2	2.1
B3	0.992
B4	1.97
B5	0.876
B6	1.05
B7	2.17
B8	0.816
B9	1.09
B10	1.17
B11	0.49
B12	1.2
B13	0.904
B14	0.586
B15	0.928
B16	0.933
B17	0.708
B18	1.07
B19	0.772
B20	1.26
B21	1.49
B22	1.73
